Source: PubChem BioAssay AID651568 (National Center for Advancing Translational Sciences (NCATS), 2012)
Hit rate of the full screen: of about 1,200 compounds, about 55 (5%) were called active. About 15% were inconclusive and are not listed. The call rests on the fitted dose curve; in most records, active means well fitted inhibition curve with a large enough effect; inconclusive means small, poorly fitted or top-dose-only effect; inactive means no such curve, though single readings can be large or run the other way. This is one part of the list.

assay: qHTS Assay to Find Inhibitors of Chronic Active B-Cell Receptor Signaling: Hit Validation in Renilla Reporter Assay; conditions: TMD8 IkB-Renilla luciferase reporter, NF-kB signaling; series mostly up to 57.5 µM; activity change, negative = inhibition: at the top concentration; further: nearly all actives have a fitted effect of over 70% in size
From the text: Diffuse large B-cell lymphoma (DLBCL) is the most common category of non-Hodgkin lymphoma, with ~20,000 new cases per year in the United States. DLBCL should be regarded as a collection of different neoplasms. Microarray gene expression analysis has defined two principal types of DLBCL, named for their similarity to normal B cell stages or activation states: a germinal center B-cell (GCB) type, and an activated B-cell (ABC) type. In ABC-DLBCL, a constitutive high-level activity of the NF-kappaB family of transcription factors has been observed (1) and NF-kappaB target genes are more highly expressed in ABC primary tumors than in GCB tumors. Functional studies have shown a constitutive high-level activity of the IkappaB (inhibitor of kappa-B) kinase (IKK) complex. […] Further analysis of DLBCL primary tumors for NF-kappaB target gene expression imply that although CARD11 is required for constitutive IKK activity in all ABC-DLBCL lines, mutations in CARD11 may be the root cause of IKK activation only in lines or tumors with such mutations. In other words, CARD11 mutations may explain NF-kappaB activation in only 10% of ABC-DLBCL cases. […] This process has been termed 'chronic active BCR signaling' (CABS). The goal of this screen is to find small-molecule inhibitors of the CABS pathway found in ABC-DLBCL lines using a cell-based assay that measures IkappaBalpa stability, which has already been extensively validated in the OCI-Ly3 line (PubChem AID:445; REF: 4). […] Hits from the primary screen were tested in this orthogonal secondary assay. NIH Molecular Libraries Probe Production Network [MLPCN] NIH Chemical Genomics Center [NCGC] MLPCN Grant: R03 DA031086 PI Name: Dr. R. Eric Davis
The IkB-Photinus/Renilla reporter assay differs from the primary assay in that the reporters are constitutively expressed, and based on luciferases that are different from the click beetle luciferases and each other. These differences should help to eliminate artifactual sources of activity specific to the primary assay. This assay uses the Dual-Glo substrate from Promega; extensively validated in a 96-well format, it could be converted to a smaller-well format. All lines needed for the IkB-Photinus/Renilla assay have already been prepared and extensively validated
On the % scale 0 is the no-effect control and ±100 the full control effect.

Activity change, negative = inhibition, inactive:
COc1cccc(/C=N/NC(=S)Nc2cccc(S(=O)(=O)N(C)C)c2)c1 17.9%
Cc1ccc(C)c(/C=N/NC(=S)NC(C)C)c1 -0.524%
CCOc1ccc(S(=O)(=O)Nc2ccc3oc(C)c(C(=O)OCCOC)c3c2)cc1 9.42%
CCCc1oc2ccc(NS(=O)(=O)c3ccc(OC)cc3)cc2c1C(=O)OCC -26.6%
COc1cc(-c2noc(C)c2-c2ccc(N(C)C)nc2)cc(OC)c1OC -28.4%
Cc1cc(C(=O)OCC(=O)Nc2c(Cl)cccc2Cl)c(C)o1 2.16%
CCc1ccc(CNC(=O)Cc2ccc(NC(=O)C3=C(C)OCCS3)cc2)cc1 0.25%
CCOC(=O)C1=C(COC(=O)/C=C/c2ccc(O)c(OC)c2)NC(=O)NC1C (stereo not drawn) -15%
COc1cccc(C(=O)Nc2cc(NC(=O)c3cccs3)ccc2C)c1OC 12.1%
COc1cc(CC(=O)OCC(=O)c2ccc3c(c2)OCCO3)cc(OC)c1OC -4.05%
CCOc1ccccc1NC(=O)Cn1nnc(C(=O)NCc2cccs2)c1N -8.82%
C=CCSc1nc(C)cc2c1C(=O)OC2 -3.05%
c1ccc2c(CSc3ncnc4nc[nH]c34)cccc2c1 -5.76%
CCOCCCNC(=O)c1ccc2c(c1)N=C(CC)c1cc(Br)ccc1S2 -0.63%
CCc1ccc(CCC(=O)Nc2sc3c(c2C#N)CCCC3)o1 -12.7%
O=C(CSc1nnnn1-c1ccccc1)Nc1nsc(-c2ccc(Cl)cc2)n1 -1.99%
COc1ccccc1C1C2=C(COC2=O)Nc2cc3c(cc21)OCO3 (stereo not drawn) -27.1%
Cc1cc(C)cc(N2CC(O)=C(c3nc4ccccc4c(=O)[nH]3)C2=N)c1 -4.94%
COc1ccc(/C=C/C(=O)Nc2ccc(-n3nncc3-c3ccc(OC)c(OC)c3)cc2)cc1OC -16.2%
CCOC(=O)c1c(C)n(C)c2ccc(OC)c(NC(=O)CN3CCC4(CC3)OCCO4)c12 0.686%
CCc1cc2c(SCC(=O)NC3CC3)ncnc2s1 -3.97%
S=c1nn[nH]n1C12CC3CC(CC(C3)C1)C2 -6.62%
CCC(=C/c1sc2ccc3ccccc3c2[n+]1C)/C=C1\Sc2ccc3ccccc3c2N1C -21.8%
CCOC(=O)C1=C(O)/C(=C/c2ccc(OCC(=O)O)c(OCC)c2)SC1=Nc1ccccc1 -13%
C=CCN(CC=C)C(=S)NC(=O)c1ccc(OC)cc1 2.46%
COc1ccccc1OCCCN1C(=O)C(=O)c2cccc(C)c21 -19.7%
O=C(COc1ccc(-c2ccccc2)cc1)N1CCN(S(=O)(=O)Cc2ccccc2)CC1 -6.24%
COc1ccc(CC2(CO)CCN(Cc3cccc4nccnc34)CC2)cc1 -0.999%
Cc1c(CCC(=O)N2CCC(C(=O)O)CC2)c(=O)oc2cc3oc4c(c3cc12)CCCC4 -27.6%
COC(=O)c1ccc(Oc2cc(C)nc(-n3nc(C)cc3C)n2)cc1 -11%
Fc1ccc(/C=N/NC(=S)Nc2cccnc2)cc1 -11.2%
COc1ccc(C(=O)c2ccc(N(C)C)cc2)c2ccccc12 19.5%
COc1ccccc1CNC(=O)CSC(=S)N1CCCC1 1.74%
O=C(Nc1ncc(Cc2ccc(SC(F)F)cc2)s1)c1ccccc1 -0.639%
COc1cc(/C(C)=N/NC(=S)NC(C)C)cc(OC)c1OC -7.98%
COc1ccc(NS(=O)(=O)c2cc(-c3cnc(C4CC4)o3)ccc2C)cc1 31.4%
O=S1(=O)[C@H]2C[C@H](CO)O[C@@]2(CO)CN1Cc1ccc(-c2cccc(Cl)c2)cc1 -16.5%
CCOc1cc(C(=O)N/N=C/C(Br)=C/c2ccccc2)cc(OCC)c1OCC 0.0301%
CCC1=Nc2cc(C(=O)NCCCOC(C)C)ccc2Sc2ccc(C)cc21 -27.5%
COc1ccc(-c2cnnn2-c2ccc(NC(=O)c3ccc(S(=O)(=O)N4CCCCC4)cc3)cc2)cc1OC 9.05%
O=C(CSc1cccc[n+]1[O-])c1cc(Cl)ccc1Cl -14%
O=C(NCC(=O)N1CCCC(C(F)(F)F)C1)c1ccc(Oc2ccccc2)cc1 (stereo not drawn) 0.46%
COc1ccc(OC)c(-c2cc(C(=O)Nc3c(C)nn(Cc4ccccc4)c3C)no2)c1 0.953%
CCOC(=O)c1[nH]c(C)c(C(=O)OCC)c1C -18.6%
COc1cc(NC(=O)c2cc(C(C)C)on2)cc(OC)c1OC 3.91%
COc1ccc(COc2cc(-c3cccc(OC)c3)nc3ccc(N)cc23)cc1 -1.86%
Cc1ccc(S(=O)(=O)N2CCCCC2CCNC(=O)C(=O)NCc2ccccc2)cc1 (stereo not drawn) 5.15%
Cc1cc(Cl)ccc1OCCCC(=O)NO -13.8%
COc1ccc(N/C=C/C(=O)c2cc(OC)c(OC)c(OC)c2)cc1 -2.15%
Cn1nc(C(F)(F)F)c(/C=N/OC(=O)c2ccccc2)c1Sc1ccc(Cl)cc1 -8.27%
Cc1ccccc1NC(=S)N=Nc1c(O)n(C)c2ccc(S(=O)(=O)N3CCOCC3)cc12 -22.4%
C=CCNC(=S)NN=C1CCCCCCC1 -1.11%
CC(=O)Nc1ccc(NS(=O)(=O)c2cc(-c3n[nH]c(=O)c4ccccc34)ccc2C)cc1 19.6%
Cc1c(CCC(=O)N[C@@H](CCCNC(N)=O)C(=O)O)c(=O)oc2cc3oc4c(c3cc12)CCCC4 -12.2%
CC1=NN(C(N)=S)C(=O)C1N=Nc1ccccc1 (stereo not drawn) -1.3%
CCOc1cc(NC(=O)CCl)c(OCC)cc1NC(=O)CCl -23.9%
Nc1nc(N)c(N=O)c(OCC2CCCCC2)n1 -27.9%
CCOc1c(Br)cc(CNc2ccc3c(c2)OCCO3)cc1OC -16.9%
CC(C)(C)NNC(=S)Nc1cccc(C(F)(F)F)c1 25.8%
Cc1ccc(NC(=O)/C=C/c2ccco2)nc1 -0.453%
CC(/C=N/NC(=O)c1cc(-c2ccc(Cl)cc2)nc2ccccc12)=C\c1ccco1 -13%
Cc1ccc(CNC(=O)Cc2ccc(-n3c(=O)[nH]c4ccsc4c3=O)cc2)cc1 5.72%
Cc1nn(C)cc1CNC(=O)COc1ccc(Cl)cc1Cl -17.4%
Cc1nn(Cc2ccccc2)c2c1C(c1ccccc1)C(C#N)=C(N)O2 (stereo not drawn) -20.3%
C=CCn1c(SC2CCOC2=O)nc2sc(C)c(C)c2c1=O (stereo not drawn) 20.1%
CCCCOc1ccc2c(C)cc(=O)oc2c1OCCCC 6.6%
COc1ccc(C2CC(c3ccncc3)=NN2c2ccc(S(N)(=O)=O)cc2)cc1 (stereo not drawn) 44.1%
CCC(=NCCc1c(C)[nH]c2ccc(C)cc12)C1=C(O)CC(c2ccccc2)CC1=O (stereo not drawn) -14.9%
